# Test results: patent US11566057B2, “Long-acting co-agonists of the glucagon and GLP-1 receptors” (Merck Sharp & Dohme Corp., priority 2017, dated 2023)
# Like-named read-outs stand apart in the source and are kept apart here. At least one peptide structure holds a part that was inferred or is arguable (an end, a ring closure or a residue). At least one compound was matched to its structure with a doubt left. Some results were stated once for a whole list of compounds, not compound by compound. Numbered stars: 1 amine (or outer) side, 2 acyl side, 3 side chain; on linkers, the order of the positions; unused ones are H or OH. Square brackets hold non-standard residues; d marks the D form. Side chains are listed from the residue outwards. Peptide text beside a SMILES is read from it. * marks the point of attachment. C20 diacid = O=C(O)CCCCCCCCCCCCCCCCCCC(=O)*; Phe(4-CH2NH2) = NCc1ccc(C[C@H](N)C(=O)O)cc1; C16 diacid = O=C(O)CCCCCCCCCCCCCCC(=O)*; γGlu = O=C(O)[C@H](CCC(=O)[*:2])N[*:1]; Met(O2) = CS(=O)(=O)CC[C@H](N)C(=O)O; Palmitoyl = CCCCCCCCCCCCCCCC(=O)*; αMeD = C[C@](N)(CC(=O)O)C(=O)O; AEEA = NCCOCCOCC(=O)O; Aib = CC(C)(N)C(=O)O
# Experiments:
# human GLP1R = target: T1, human GLP1R (Homo sapiens, UniProt P43220); test: cAMP activity assay at the GLP-1 receptor (GLP1R); format: cell-based
# T1 construct: expressed in transfected cells; growth medium holds Blasticidin and Hygromycin
# T1 sequence (P43220 24-463): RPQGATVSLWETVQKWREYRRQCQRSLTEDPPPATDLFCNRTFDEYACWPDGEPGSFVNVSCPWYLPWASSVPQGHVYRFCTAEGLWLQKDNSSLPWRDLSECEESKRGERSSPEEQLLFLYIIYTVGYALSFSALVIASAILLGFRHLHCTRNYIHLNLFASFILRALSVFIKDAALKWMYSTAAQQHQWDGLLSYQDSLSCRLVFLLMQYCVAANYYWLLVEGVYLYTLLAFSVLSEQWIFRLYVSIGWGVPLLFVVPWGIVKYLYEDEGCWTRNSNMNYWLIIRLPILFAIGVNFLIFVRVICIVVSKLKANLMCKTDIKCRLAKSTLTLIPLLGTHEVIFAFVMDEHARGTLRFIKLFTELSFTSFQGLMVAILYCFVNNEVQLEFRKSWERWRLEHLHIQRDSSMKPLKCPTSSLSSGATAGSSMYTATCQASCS
# Protocol: (§1) Activity of the peptides at the Glucagon receptor (GCGR) and GLP-1 receptor (GLP1R) was measured in a cAMP activity assay.
# (§2) GCG/GLP-1 receptor co-agonist peptides were dissolved in 100% DMSO (dimethyl sulfoxide) and serially diluted to generate 10 point titrations. The peptide solutions were then transferred into 384-well assay plates (150 nL/well). Assay ready frozen cells expressing human GLP1R or human GCGR were suspended in growth media consisting of DMEM medium (GIBCO®), 10% FBS (GIBCO®), 1×NEAA(GIBCO®), 1×P/S (GIBCO®), 10 ug/mL Blasticidin (GIBCO®) and 200 μg/mL Hygromycin (GIBCO®). […] The cell suspensions (15 μL) were then added to the assay plates containing the peptide solutions (30,000 cells/well for human GCGR; 10,000 cells/well for human GLP1R). The cells were incubated for 1 hour at room temperature in the dark. Production of cAMP was determined using HitHunter™ cAMPXS kits (DiscoverX) following manufacturer protocol. The plates were incubated for overnight at room temperature in the dark. Luminescence was measured using an EnVision Multilabel plate reader (Perkin Elmer). Native GLP-1 and Glucagon (Bachem) are used as control peptides. EC50 values were calculated using uses a 4 parameter logistic fit based on the Levenberg-Marquardt algorithm.
# human GCGR = target: T2, human GCGR (Homo sapiens, UniProt P47871); test: cAMP activity assay at the Glucagon receptor (GCGR); format: cell-based; conditions: for hGCGR/hGLP1R (hTone): ratio of GCGR EC50 to GLP1R EC50
# T2 construct: expressed in transfected cells; growth medium holds Blasticidin and Hygromycin
# T2 sequence (P47871 26-477): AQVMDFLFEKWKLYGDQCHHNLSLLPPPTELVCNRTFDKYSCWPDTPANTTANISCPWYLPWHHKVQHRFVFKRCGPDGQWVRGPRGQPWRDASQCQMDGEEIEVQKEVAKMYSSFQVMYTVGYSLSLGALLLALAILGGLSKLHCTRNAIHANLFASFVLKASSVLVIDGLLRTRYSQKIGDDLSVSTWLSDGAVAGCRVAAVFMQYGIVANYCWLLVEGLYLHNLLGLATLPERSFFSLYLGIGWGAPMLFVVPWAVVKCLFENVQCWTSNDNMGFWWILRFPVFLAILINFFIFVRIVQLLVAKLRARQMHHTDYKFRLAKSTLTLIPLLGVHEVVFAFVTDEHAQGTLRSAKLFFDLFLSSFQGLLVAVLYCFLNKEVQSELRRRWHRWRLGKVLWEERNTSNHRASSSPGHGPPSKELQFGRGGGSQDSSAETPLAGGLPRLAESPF
# Protocol: as §1, §2
# [1] = cells expressing human GLP1R, cAMP production, buffer with or without 20% human serum (not stated which), read-out: GLP1R EC50 human
# [2] = summary statement: EC50 at each of the glucagon and GLP-1 receptors, read-out: EC50 at the GLP-1 receptor
# [3] = cells expressing human GCGR, cAMP production, buffer with or without 20% human serum (not stated which), read-out: GCGR EC50 human
# [4] = summary statement: EC50 at each of the glucagon and GLP-1 receptors, read-out: EC50 at the glucagon receptor
Compound,EC50 (human GLP1R; [1]),EC50 (human GLP1R; [2]),EC50 (human GCGR; [3]),EC50 (human GCGR; [4]),hGCGR/hGLP1R (hTone) (human GCGR)
CC(C)C[C@H](NC(=O)[C@H](CC(C)C)NC(=O)[C@H](Cc1c[nH]c2ccccc12)NC(=O)[C@H](CCC(N)=O)NC(=O)[C@@H](NC(=O)[C@H](Cc1ccccc1)NC(=O)[C@H](CC(=O)O)NC(=O)[C@H](CCC(N)=O)NC(=O)[C@H](C)NC(=O)[C@H](C)NC(=O)[C@H](CCCNC(=N)N)NC(=O)C(C)(C)NC(=O)[C@H](CC(=O)O)NC(=O)[C@H](CC(C)C)NC(=O)[C@H](Cc1ccc(O)cc1)NC(=O)[C@H](CCCCN)NC(=O)[C@H](CO)NC(=O)[C@H](Cc1ccc(CNC(=O)COCCOCCNC(=O)COCCOCCNC(=O)CC[C@H](NC(=O)CCCCCCCCCCCCCCC(=O)O)C(=O)O)cc1)NC(=O)[C@H](CC(=O)O)NC(=O)[C@H](CO)NC(=O)[C@@H](NC(=O)[C@H](Cc1ccccc1)NC(=O)[C@@H](NC(=O)CNC(=O)[C@H](CCC(N)=O)NC(=O)[C@@H](CO)NC(=O)[C@@H](N)Cc1c[nH]cn1)[C@@H](C)O)[C@@H](C)O)C(C)C)C(=O)N[C@@H](C)C(=O)N[C@H](C(=O)N[C@@H](CCCCN)C(=O)N[C@@H](CCC(N)=O)C(=O)O)[C@@H](C)O [TP659] (H-H[dS]QGTFTSD[Phe(4-CH2NH2)]([AEEA-AEEA-γGlu-C16 diacid])SKYLD[Aib]RAAQDFVQWLLATKQ-OH; N-terminus assumed),> 4.9 nM,< 5 nM,0.46 nM,< 5 nM,
CC(C)C[C@H](NC(=O)[C@H](CC(C)C)NC(=O)[C@H](Cc1c[nH]c2ccccc12)NC(=O)[C@H](CCC(N)=O)NC(=O)[C@@H](NC(=O)[C@H](Cc1ccccc1)NC(=O)[C@H](CC(=O)O)NC(=O)[C@H](CCC(N)=O)NC(=O)[C@H](C)NC(=O)[C@H](C)NC(=O)[C@H](CCCNC(=N)N)NC(=O)C(C)(C)NC(=O)[C@H](CC(=O)O)NC(=O)[C@H](CC(C)C)NC(=O)[C@H](Cc1ccc(O)cc1)NC(=O)[C@H](CCCCN)NC(=O)[C@H](CO)NC(=O)[C@H](Cc1ccc(CNC(=O)COCCOCCNC(=O)COCCOCCNC(=O)CC[C@H](NC(=O)CCCCCCCCCCCCCCCCCCC(=O)O)C(=O)O)cc1)NC(=O)[C@H](CC(=O)O)NC(=O)[C@H](CO)NC(=O)[C@@H](NC(=O)[C@H](Cc1ccccc1)NC(=O)[C@@H](NC(=O)CNC(=O)[C@H](CCC(N)=O)NC(=O)C(C)(C)NC(=O)[C@@H](N)Cc1c[nH]cn1)[C@@H](C)O)[C@@H](C)O)C(C)C)C(=O)N[C@@H](C)C(=O)N[C@H](C(=O)N[C@@H](CCCCNC(=O)CC[C@H](N)C(=O)O)C(N)=O)[C@@H](C)O [TP581] (H-H[Aib]QGTFTSD[Phe(4-CH2NH2)]([AEEA-AEEA-γGlu-C20 diacid])SKYLD[Aib]RAAQDFVQWLLATK(γGlu)-NH2; N-terminus assumed),,< 5 nM,4.95 nM,< 5 nM,
CC(C)C[C@H](NC(=O)[C@H](CC(C)C)NC(=O)[C@H](Cc1c[nH]c2ccccc12)NC(=O)[C@H](CCC(N)=O)NC(=O)[C@@H](NC(=O)[C@H](Cc1ccccc1)NC(=O)[C@H](CC(=O)O)NC(=O)[C@H](CCCCNC(=O)COCCOCCNC(=O)COCCOCCNC(=O)CC[C@H](NC(=O)CCCCCCCCCCCCCCC(=O)O)C(=O)O)NC(=O)[C@H](C)NC(=O)[C@H](C)NC(=O)[C@H](CCCNC(=N)N)NC(=O)C(C)(C)NC(=O)[C@H](CC(=O)O)NC(=O)[C@H](CC(C)C)NC(=O)[C@H](Cc1ccc(O)cc1)NC(=O)[C@H](CCCCN)NC(=O)[C@H](CO)NC(=O)[C@H](Cc1ccc(O)cc1)NC(=O)[C@H](CC(=O)O)NC(=O)[C@H](CO)NC(=O)[C@@H](NC(=O)[C@H](Cc1ccccc1)NC(=O)[C@@H](NC(=O)CNC(=O)[C@H](CCC(N)=O)NC(=O)C(C)(C)NC(=O)[C@@H](N)Cc1c[nH]cn1)[C@@H](C)O)[C@@H](C)O)C(C)C)C(=O)N[C@@H](C)C(=O)N[C@H](C(=O)N[C@@H](CCCCN)C(=O)N[C@@H](CCC(N)=O)C(=O)O)[C@@H](C)O [TP662] (H-H[Aib]QGTFTSDYSKYLD[Aib]RAAK([AEEA-AEEA-γGlu-C16 diacid])DFVQWLLATKQ-OH; N-terminus assumed),0.52 nM,< 5 nM,1.45 nM,< 5 nM,2.8
CCCCCCCCCCCCCCCC(=O)N[C@@H](CCC(=O)N[C@@H](CCC(=O)NCCCC[C@H](NC(=O)[C@H](CC(=O)O)NC(=O)[C@H](CO)NC(=O)[C@@H](NC(=O)[C@H](Cc1ccccc1)NC(=O)[C@@H](NC(=O)CNC(=O)[C@H](CCC(N)=O)NC(=O)C(C)(C)NC(=O)[C@@H](N)Cc1c[nH]cn1)[C@@H](C)O)[C@@H](C)O)C(=O)N[C@@H](CO)C(=O)N[C@@H](CCCCN)C(=O)N[C@@H](Cc1ccc(O)cc1)C(=O)N[C@@H](CC(C)C)C(=O)N[C@@H](CC(=O)O)C(=O)N[C@@H](C)C(=O)N[C@@H](CCCNC(=N)N)C(=O)N[C@@H](C)C(=O)N[C@@H](C)C(=O)N[C@@H](CCC(N)=O)C(=O)N[C@@H](CC(=O)O)C(=O)N[C@@H](Cc1ccccc1)C(=O)N[C@H](C(=O)N[C@@H](CCCCNC(=O)COCCOCCNC(=O)COCCOCCNC(=O)CC[C@H](NC(=O)CCCCCCCCCCCCCCC(=O)O)C(=O)O)C(=O)N[C@@H](Cc1c[nH]c2ccccc12)C(=O)N[C@@H](CC(C)C)C(=O)N[C@@H](CCS(C)(=O)=O)C(=O)N[C@@](C)(CC(=O)O)C(=O)N[C@H](C(N)=O)[C@@H](C)O)C(C)C)C(=O)O)C(=O)O [TP607] (H-H[Aib]QGTFTSDK([γGlu-γGlu-Palmitoyl])SKYLDARAAQDFVK([AEEA-AEEA-γGlu-C16 diacid])WL[Met(O2)][αMeD]T-NH2; N-terminus assumed),,< 5 nM,,< 5 nM,0.5
CC(C)C[C@H](NC(=O)[C@H](Cc1ccc(O)cc1)NC(=O)[C@H](CCCCN)NC(=O)[C@H](CO)NC(=O)[C@H](Cc1ccc(CNC(=O)COCCOCCNC(=O)COCCOCCNC(=O)CC[C@H](NC(=O)CCCCCCCCCCCCCCC(=O)O)C(=O)O)cc1)NC(=O)[C@H](CC(=O)O)NC(=O)[C@H](CO)NC(=O)[C@@H](NC(=O)[C@H](Cc1ccccc1)NC(=O)[C@@H](NC(=O)CNC(=O)[C@H](CCC(N)=O)NC(=O)C(C)(C)NC(=O)[C@@H](N)Cc1c[nH]cn1)[C@@H](C)O)[C@@H](C)O)C(=O)N[C@@H](CC(=O)O)C(=O)NC(C)(C)C(=O)N[C@@H](CCCNC(=N)N)C(=O)N[C@@H](C)C(=O)N[C@@H](C)C(=O)N[C@@H](CCC(N)=O)C(=O)N[C@@H](CC(=O)O)C(=O)N[C@@H](Cc1ccccc1)C(=O)N[C@H](C(=O)N[C@@H](CCC(N)=O)C(=O)N[C@@H](Cc1c[nH]c2ccccc12)C(=O)N[C@@H](CC(C)C)C(=O)N[C@@H](CC(C)C)C(=O)N[C@@](C)(CC(=O)O)C(=O)N[C@H](C(=O)N[C@@H](CCCCN)C(=O)N[C@@H](CCC(N)=O)C(=O)O)[C@@H](C)O)C(C)C [TP657],,< 5 nM,0.14 nM,< 5 nM,0.1
CC(C)C[C@H](NC(=O)[C@H](CC(C)C)NC(=O)[C@H](Cc1c[nH]c2ccccc12)NC(=O)[C@H](CCC(N)=O)NC(=O)[C@@H](NC(=O)[C@H](Cc1ccccc1)NC(=O)[C@H](CC(=O)O)NC(=O)[C@H](CCC(N)=O)NC(=O)[C@H](C)NC(=O)[C@H](C)NC(=O)[C@H](CCCNC(=N)N)NC(=O)C(C)(C)NC(=O)[C@H](CC(=O)O)NC(=O)[C@H](CC(C)C)NC(=O)[C@H](Cc1ccc(O)cc1)NC(=O)[C@H](CCCCN)NC(=O)[C@H](CO)NC(=O)[C@H](Cc1ccc(CNC(=O)COCCOCCNC(=O)COCCOCCNC(=O)CC[C@H](NC(=O)CCCCCCCCCCCCCCC(=O)O)C(=O)O)cc1)NC(=O)[C@H](CC(=O)O)NC(=O)[C@H](CO)NC(=O)[C@@H](NC(=O)[C@H](Cc1ccccc1)NC(=O)[C@@H](NC(=O)CNC(=O)[C@H](CCC(N)=O)NC(=O)[C@](C)(CO)NC(=O)[C@@H](N)Cc1c[nH]cn1)[C@@H](C)O)[C@@H](C)O)C(C)C)C(=O)N[C@@H](C)C(=O)N[C@H](C(=O)N[C@@H](CCCCN)C(=O)N[C@@H](CCC(N)=O)C(=O)O)[C@@H](C)O [TP660],,< 5 nM,4.54 nM,< 5 nM,1.3
CC(C)C[C@H](NC(=O)[C@H](Cc1c[nH]c2ccccc12)NC(=O)[C@H](CCC(N)=O)NC(=O)[C@@H](NC(=O)[C@H](Cc1ccccc1)NC(=O)[C@H](CC(=O)O)NC(=O)[C@H](CCC(N)=O)NC(=O)[C@H](C)NC(=O)[C@H](C)NC(=O)[C@H](CCCNC(=N)N)NC(=O)C(C)(C)NC(=O)[C@H](CC(=O)O)NC(=O)[C@H](CC(C)C)NC(=O)[C@H](Cc1ccc(O)cc1)NC(=O)[C@H](CCCCN)NC(=O)[C@H](CO)NC(=O)[C@H](Cc1ccc(CNC(=O)COCCOCCNC(=O)COCCOCCNC(=O)CC[C@H](NC(=O)CCCCCCCCCCCCCCC(=O)O)C(=O)O)cc1)NC(=O)[C@H](CC(=O)O)NC(=O)[C@H](CO)NC(=O)[C@@H](NC(=O)[C@H](Cc1ccccc1)NC(=O)[C@@H](NC(=O)CNC(=O)[C@H](CCC(N)=O)NC(=O)C(C)(C)NC(=O)[C@@H](N)Cc1c[nH]cn1)[C@@H](C)O)[C@@H](C)O)C(C)C)C(=O)N[C@@H](CCS(C)(=O)=O)C(=O)N[C@@H](C)C(=O)N[C@H](C(=O)N[C@@H](CCCCN)C(=O)N[C@@H](CCC(N)=O)C(=O)O)[C@@H](C)O [TP658] (H-H[Aib]QGTFTSD[Phe(4-CH2NH2)]([AEEA-AEEA-γGlu-C16 diacid])SKYLD[Aib]RAAQDFVQWL[Met(O2)]ATKQ-OH; N-terminus assumed),,< 5 nM,,< 5 nM,1.9
